These results are taken from PubChem BioAssay AID312 (DTP/NCI, 2004).

Structures are written as SMILES. Toxic doses and inconclusive results are not listed. A number of entries come with more than one value. The other results are left out here. There may be further records. Values that stand side by side repeat one measurement in other runs, samples, wells, individuals or studies.

In this experiment the test system is BDF1 mice, C1498 leukemia ip, median survival T/C. The experiment in a line: NCI In Vivo Anticancer Drug Screen. Data for tumor model C1498 Myeloid Leukemia (intraperitoneal) in B6D2F1 (BDF1) mice. The conditions noted are these: endpoint: median survival time, schedule: Q01DX010 (ip), vehicle: saline, higher = longer survival. As to the method:
The antitumor activity of compounds was measured in mice bearing transplantable tumors. Survival or tumor size were measured and the results are expressed as the measurement made in the treated group (T) divided by the measurement made in the vehicle treated control group (C). The tumor model used in this assay is C1498 Myeloid Leukemia (intraperitoneal) in B6D2F1 (BDF1) mice

Consider `CC(=O)NC1=C(N2CC2)C(=O)C(NC(C)=O)=C(N2CC2)C1=O`, for which the T/C runs as follows: (dose: 500.0 micrograms/kg/injection) 122 % of control and 150 % of control; (dose: 1000.0 micrograms/kg/injection) 116 % of control and 163 % of control.

Turning to `O=C(Nc1ccc(C2=NCCN2)cc1)c1ccc(C(=O)Nc2ccc(C3=NCCN3)cc2)c([N+](=O)[O-])c1`, the T/C (dose: 12.0 mg/kg/injection) was 100 % of control and 157 % of control.
